SMILES strings stand for the structures. The list shows a part of the results. Many values rest on one well or one pass, so single values are uncertain.

Among the test systems are HCC-1143; HCC-1187; MDA-468; SUM-149.
What all share (test): cell viability relative to vehicle (% of vehicle); basal-like triple-negative breast cancer lines; higher = less cytotoxic
Settings in all cases: 10 µM; 72 h
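Further: stably firefly luciferase-GFP labeled cells in 96-well plates, viability read as luciferase photon flux after d-luciferin addition, treated wells normalized to vehicle wells, single-dose high-throughput screen.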

Consider `O=c1cccc2n1C[C@@H]1CNC[C@H]2C1` [Cytisine], for which the cell viability in the test on HCC-1143 was 75.9; with HCC-1187, 77.9; with MDA-468, 107; with SUM-149, 102.
The like results for `CN(C)C(=O)C(CCN1CCC(O)(c2ccc(Cl)cc2)CC1)(c1ccccc1)c1ccccc1.Cl` [Loperamide HCl] were, in that order, 97.5, 82.5, 88.2 and 88.9.
The like results for `CN1C2CCC1CC(OC(=O)C(CO)c1ccccc1)C2.CN1C2CCC1CC(OC(=O)C(CO)c1ccccc1)C2.O.O=S(=O)(O)O` (stereo not drawn) [Atropine] were, in that order, 78.9, 99.1, 97.7 and 86.3.
The like results for `Cc1cc(C(C#N)c2ccc(Cl)cc2)c(Cl)cc1NC(=O)c1cc(I)cc(I)c1[O-].[Na+]` (stereo not drawn) [Closantel Sodium] were, in that order, 67.6, 100, 102 and 99.5.
With `CCCC[N+]1(C)[C@@H]2C[C@@H](OC(=O)[C@H](CO)c3ccccc3)C[C@H]1[C@@H]1O[C@@H]12` (stereo partly drawn) [Scopolamine butylbromide], the cell viability in the test on HCC-1143 was 99.9; in the test with HCC-1187 it was 118; with MDA-468, 89.5; in the test on SUM-149 it was 117.
The like results for `CC(C)OC(=O)[C@H](C)N[P@](=O)(CO[C@H](C)Cn1cnc2c(N)ncnc21)Oc1ccccc1` were, in that order, 125, 93.8, 121 and 147.
The like results for `C=CCC1(O)CCC2C3CCC4=CC(=O)CCC4=C3C=CC21C` (stereo not drawn) [Altrenogest] were, in that order, 76.3, 118, 102 and 111.
On to `Cl.Cn1c(CCCC(=O)O)nc2cc(N(CCCl)CCCl)ccc21` [Bendamustine HCl], for which the cell viability with HCC-1143 stood at 91.9; in the test with HCC-1187 it was 88.4; with MDA-468, 86.3; in the test with SUM-149 it was 102.
The like results for `C[N+]1(C)[C@@H]2C[C@@H](OC(=O)C(CO)c3ccccc3)C[C@H]1[C@@H]1O[C@@H]12.[Br-]` (stereo partly drawn) [Methscopolamine] were, in that order, 83.4, 76.3, 93.5 and 133.
The like results for `CC12CC(=CO)C(=O)CC1CCC1C2CCC2(C)C1CCC2(C)O` (stereo not drawn) [Oxymetholone] were, in that order, 99.7, 117, 128 and 81.8.
On to `C=C1CC2C(CCC3(C)C(=O)CCC23)C2(C)C=CC(=O)C=C12` (stereo not drawn) [Exemestane], for which the cell viability in the test with HCC-1143 amounted to 115; in the test on HCC-1187 it was 108; in the test with MDA-468 it was 126; in the test with SUM-149 it was 99.5.
The like results for `Nc1nc(N)nc(NC2CC2)n1` [Cyromazine] were, in that order, 101, 105, 113 and 97.8.
The like results for `Cc1cccc(C(C)c2cnc[nH]2)c1C` (stereo not drawn) [Dexmedetomidine] were, in that order, 93.3, 109, 104 and 95.6.
The like results for `CC1C=CC=CCCC=CC=CC=CC=CC(OC2OC(C)C(O)C(N)C2O)CC2OC(O)(CC(O)C(O)CCC(O)CC(O)CC(O)CC(=O)OC(C)C(C)C1O)CC(O)C2C(=O)O` (stereo not drawn) [Nystatin (Fungicidin)] were, in that order, 77.5, 116, 127 and 103.
For `O=C(O)c1nn(Cc2ccc(Cl)cc2Cl)c2ccccc12` [Lonidamine], the cell viability in the test on HCC-1143 was 77.7; in the test with HCC-1187, 105; in the test on MDA-468 it was 107; in the test with SUM-149, 111.
The like results for `O=C(OC1CC2CCC(C1)[N+]21CCCC1)C(O)(c1ccccc1)c1ccccc1.[Cl-]` (stereo not drawn) [Trospium chloride] were, in that order, 115, 104, 101 and 120.
The like results for `CCC(C(N)=O)N1CCCC1=O` (stereo not drawn) [Levetiracetam] were, in that order, 114, 111, 93.4 and 81.1.
The like results for `O=c1[nH]c2ccccc2n1C1CCN(CCCC(c2ccc(F)cc2)c2ccc(F)cc2)CC1` [Pimozide] were, in that order, 71.5, 83.9, 111 and 72.2.
As for `Cc1cc(O)ccc1Cl` [Chlorocresol], the cell viability with HCC-1143 amounted to 67.5; with HCC-1187 it was 82.1; in the test on MDA-468 it was 94.8; in the test on SUM-149 it was 78.5.
The like results for `CCNCC.O=C(O)Cc1ccccc1Nc1c(Cl)cccc1Cl` [Diclofenac Diethylamine] were, in that order, 71.5, 74.3, 105 and 98.6.
The like results for `CC1CNCCc2ccc(Cl)cc21.Cl` (stereo not drawn) [Lorcaserin HCl] were, in that order, 73.9, 92.8, 121 and 99.7.
The like results for `O=C(O)CCCc1ccc(N(CCCl)CCCl)cc1` [Chlorambucil] were, in that order, 99, 105, 115 and 102.
`Cc1cccc(C(C)c2cnc[nH]2)c1C.Cl` (stereo not drawn) [Dexmedetomidine HCl]: the cell viability with HCC-1143 came out at 87.8; in the test with HCC-1187, 99; in the test with MDA-468 it was 99.9; in the test on SUM-149, 101.
The like results for `O=P1(N(CCCl)CCCl)NCCCO1` (stereo not drawn) [Cyclophosphamide] were, in that order, 86.1, 89.7, 88.3 and 108.
The like results for `COc1ccc(C(CN(C)C)C2(O)CCCCC2)cc1.Cl` (stereo not drawn) [Venlafaxine] were, in that order, 83.2, 131, 96.8 and 123.
The like results for `Br.CN1C2CC(OC(=O)C(CO)c3ccccc3)CC1C1OC12` (stereo not drawn) [Scopolamine hydrobromide] were, in that order, 101, 121, 94.1 and 88.6.
For `CC(=O)OC1CC2CCC3C(CCC4(C)C3CC([N+]3(C)CCCCC3)C4OC(C)=O)C2(C)CC1[N+]1(C)CCCCC1.[Br-].[Br-]` (stereo not drawn) [Pancuronium dibromide], the cell viability in the test with HCC-1143 was determined as 85.6; in the test on HCC-1187, 86.5; with MDA-468, 95.1; with SUM-149, 117.

The record behind these values is the supplement of paper PMC8512760.
